Several values for one entry are separate records, joined by “and”; a condition that tells them apart may be missing. Equal entries are not always repeated. Among all 360,000 compounds or so, about 7,500 (2.1%) were called active. This list was built around the results that the source calls inconclusive (neither active nor inactive); the mix of calls is not that of the screen. Calls follow the shape of the dose curve; as a rule, active = well fitted cell-killing curve with a large enough effect; inconclusive = small, poorly fitted or top-dose-only effect, or effect the other way, or another doubt; inactive = no such curve, though single readings can be large or run the other way. No potency is given beside an inconclusive call; the fits are too rough.
Test: qHTS for induction of synthetic lethality in tumor cells producing 2HG: qHTS for the HT-1080-IDH1KD cell line
Conditions: HT-1080 IDH1 knockdown viability, ATP luminescence, 48 h; series mostly up to 46.1 µM
In short: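 Luminescent ATP read-out (CellTiter-Glo, 10 min at room temperature) after 48 h compound exposure at 37 °C gave viability of IDH1-knockdown HT-1080 cells. Activity was normalised to DMSO and cell-free wells, then fitted as concentration-response curves.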
Potency is read from the fitted curve at half-maximal effect; tags tell the direction and shape of the fitted curve.

SMILES	Potency
C[C@H]1CCC/C=C/[C@@H]2C[C@H](O)C[C@H]2[C@H](O)/C=C/C(=O)O1	active: 18.4 nM and active: 6.5 nM
C[C@H]1CCC/C=C/[C@@H]2C[C@H](O)C[C@H]2[C@@H](O)/C=C/C(=O)O1	active: 0.146 µM
CC(=NCc1ccc2c(c1)OCO2)c1c(O)[nH]c(=O)[nH]c1=O	active: 20.6 µM
CC1(C)C[C@H]2C=C(C=O)[C@]3(C=O)C[C@]3(C)[C@H]2C1	active: 11.6 µM
CCCCN(C)C(=O)c1oc2ccc(S(=O)(=O)N3CCCCCC3)cc2c1C	inconclusive [cytotoxic, single point]
O=C1NCN(c2ccccc2)C12CCN(C(c1cccc3ccccc13)c1nnnn1Cc1ccccc1)CC2 (stereo not drawn)	inconclusive [cytotoxic, single point]
Cc1ccc2c(c1)[C@@H]1CN(C)CC[C@@H]1N2C(=O)Nc1cccc(C(F)(F)F)c1	inconclusive [cytotoxic, single point]
OC(Cn1c2ccccc2c2ccccc21)C[n+]1cccc2ccccc21 (stereo not drawn)	active: 20 µM
Cc1ccc(C2CC3CCC(C2)N3Cc2ccccc2F)cc1 (stereo not drawn)	active: 14.6 µM
O=C1NCN(c2ccccc2)C12CCN(C(c1cccs1)c1nnnn1Cc1ccccc1)CC2 (stereo not drawn)	inconclusive [cytotoxic, single point]
CCOC(=O)[C@]12Cc3cc4ccccc4cc3[C@H]1N(Cc1ccccc1)C(=O)c1cc(OC)ccc12	active: 14.6 µM
C=CCn1c(O)c(C(=O)CCCCCC)c(=O)[nH]c1=O	inconclusive [cytotoxic, single point]
Cc1cccc(CN2CCCC(C(=O)c3ccc(C(F)(F)F)cc3)C2)n1 (stereo not drawn)	inconclusive [cytotoxic, single point]
O=C(Nc1cccnc1)c1ccc(Cl)c(S(=O)(=O)N2CCCCCC2)c1	inconclusive [cytotoxic, single point]
CC12CCC3C(CCC4(O)CC(O)CCC34C=O)C1(O)CCC2C1=CC(=O)OC1 (stereo not drawn)	active: 1.46 µM
CCOP(=O)(OCC)c1nc(-c2cccc3ccccc23)oc1N1CCCCC1	inconclusive [cytotoxic, single point]
CCCOc1ccc(CSc2nc3ccccc3[nH]2)cc1	active: 11.2 µM
CCC(C)C1NC(=O)C(NC(=O)C(CC(C)C)N(C)C(=O)C2CCCN2C(=O)C(C)O)C(C)OC(=O)C(Cc2ccc(OC)cc2)N(C)C(=O)C2CCCN2C(=O)C(CC(C)C)NC(=O)[C@H](C)C(=O)[C@H](C(C)C)OC(=O)CC1O (stereo partly drawn)	active: 0.013 µM
CN1CCN(c2ccc([N+](=O)[O-])c3no[n+]([O-])c23)CC1	active: 4.61 µM
COC(=O)Nc1nc2ccccc2[nH]1	inconclusive [cytotoxic, partial curve]
Clc1ccc(CSC(Cn2ccnc2)c2ccc(Cl)cc2Cl)cc1 (stereo not drawn)	inconclusive [cytotoxic, single point]
C=CCN1C(=O)/C(=C/c2cc(C)n(-c3cccnc3)c2C)C(=O)NC1=S	inactive
C[C@]12CC[C@H](O)C[C@H]1CC[C@@H]1C2CC[C@]2(C)[C@@H](C3=CC(=O)OC3)[C@@H](O)C[C@]12O (stereo partly drawn)	active: 3.66 µM

SMILES	Potency
CC1CN1P(=O)(Oc1ccccc1)N1CC1C (stereo not drawn)	inactive
CC(C)Oc1cc(-n2c(=S)[nH]c3ccccc3c2=O)c(Cl)cc1Cl	inconclusive [cytotoxic, single point]
CCCCCn1c(=O)c(C(=O)Nc2ccccc2S(N)(=O)=O)c(O)c2ccccc21	inconclusive [cytotoxic, partial curve]
CCOC(=O)c1c(C)n(Cc2ccccc2)c2ccc(OCC(O)Cn3nc(C)cc3C)cc12 (stereo not drawn)	inconclusive [cytotoxic, single point]
CCCC(=O)NC(Oc1ccc(Cl)cc1Cl)C(Cl)(Cl)Cl (stereo not drawn)	inactive
COc1cccc(C(c2nnnn2-c2c(C)cccc2C)N2CCC(n3c(=O)[nH]c4ccccc43)CC2)c1OC (stereo not drawn)	inconclusive [cytotoxic, partial curve]
Cn1cccc1/C=C1\C(=O)NC(=O)N(Cc2ccccc2Cl)C1=O	inactive
CCCCCCCCN1C(=O)[C@H](CC(=O)NCCc2ccccc2OC)C[C@@]2(C(=O)OC)CCCCC=C12	inconclusive [cytotoxic, single point]
O=[N+]([O-])c1ccc(N2CCCCC2)c2ncccc12	inactive
C[C@H]1CC2C3CC=C4C[C@@H](O)CC[C@]4(C)C3CC[C@]2(C)[C@H]1O (stereo partly drawn)	inactive
Cc1cccc(NP(=O)(Oc2ccccc2F)Oc2ccccc2F)c1C	inconclusive [cytotoxic, single point]
Nc1c(C(=O)NCC2CCCO2)c2nc3ccccc3nc2n1Cc1ccco1 (stereo not drawn)	inconclusive [cytotoxic, partial curve]
CC(=O)OC1(C)CC(C)C(=O)C(C(O)CC2CC(=O)NC(=O)C2)C1 (stereo not drawn)	active: 0.13 µM
CCOC(=O)C1(CCOc2ccccc2)CCN(Cc2ccc(C)s2)CC1	inconclusive [cytotoxic, single point]
O=C(O)C1C2c3ccccc3C(=O)C1(C(=O)O)c1ccccc12 (stereo not drawn)	inactive
Cc1cc([N+](=O)[O-])c2ccccc2[n+]1[O-]	active: 8.2 µM
C/C(=N\Nc1ccccc1)c1c(O)n(C)c(=O)n(C)c1=O	inconclusive [cytotoxic, partial curve]
CCOC(=O)/C(C#N)=C1/C=C(C)NC(c2ccccc2O)=N1	inconclusive [cytotoxic, single point]
Cn1c(O)c(/C=N/Nc2ccccc2)c(=O)n(C)c1=O	active: 7.31 µM
CCOC(=O)[C@]12Cc3cc(OC)ccc3[C@H]1N(C)C(=O)c1cc(OC)ccc12	inconclusive [cytotoxic, single point]
CCOC(=O)C1=C(NC(=S)NC(=O)c2ccccc2)c2ccccc2CC12CCCC2	inconclusive [cytotoxic, partial curve]
Cc1ccc(-n2c(O)c(/C=N/Nc3ccccc3)c(=O)[nH]c2=O)cc1C	active: 6.51 µM
O=C1NCN(c2ccccc2)C12CCN(C(c1cccc3ccccc13)c1nnnn1C1CCCC1)CC2 (stereo not drawn)	inconclusive [cytotoxic, single point]

SMILES	Potency
Cc1cc(NC(=O)CCl)nn1C	inconclusive [cytotoxic, single point]
O=C(NC1CC2CCCC(C1)N2)c1ccccc1 (stereo not drawn)	inactive
COC(=O)C(NC(C)=O)(Nc1nc2c(C)cc(C)cc2s1)C(F)(F)F (stereo not drawn)	active: 12.6 µM
CC(Oc1ccc(Cl)cc1Cl)c1nc(-c2ccc(NC(=O)c3ccncc3)cc2)no1 (stereo not drawn)	inconclusive [cytotoxic, single point]
CCOc1ccc(CN2CCCC(C(=O)c3ccccc3OC)C2)cc1 (stereo not drawn)	inactive
O=S(=O)(c1ccccc1)c1ccc(NCc2ccco2)cc1	inconclusive [cytotoxic, single point]
Cc1cccc(Cn2cc(C=O)c3ccccc32)c1	inconclusive [cytotoxic, single point]
Cc1c(C(=O)c2cccc3ccccc23)c2cccc3c2n1[C@H](CN1CCOCC1)CO3	active: 9.2 µM
O=C(NCc1ccccc1)c1cccn(Cc2ccccc2)c1=O	inactive
CC1(O)CCC2C3CCC4=CC(=O)CCC4=C3C=CC21C (stereo not drawn)	inconclusive [cytotoxic, single point]
O=C(N/N=C/c1c(O)n(Cc2ccc(F)cc2)c(=O)[nH]c1=O)c1ccccc1O	inconclusive [cytotoxic, single point]
CN1CCN(c2ccc(/C=C3\C(=O)NC(=S)N(c4cccc(Br)c4)C3=O)o2)CC1	inconclusive [cytotoxic, single point]
O=C1NC(=O)N(c2ccccc2F)C(=O)/C1=C/c1cn(CC(=O)N2CCOCC2)c2ccccc12	inconclusive [cytotoxic, single point]
CCCOP(=O)(OCCC)c1nc(-c2ccccc2)oc1NCc1ccccc1	inconclusive [cytotoxic, partial curve]
O=c1[nH]cnc2nc(-c3ccc(N(CCCl)CCCl)cc3)[nH]c12	active: 0.651 µM
O=C1NCN(c2ccccc2)C12CCN(C(CCc1ccccc1)c1nnnn1Cc1ccccc1)CC2 (stereo not drawn)	inconclusive [cytotoxic, single point]
COC(=O)C1=C(c2c(C)noc2C)C[C@@H]2CC[C@H]1N2C(=O)N1CCCC1	inconclusive [rising, partial curve]
COC(=O)C1=C(c2ccc(-c3ccccc3)c(F)c2)C[C@@H]2CC[C@H]1N2C(=O)NCCc1ccccc1	inconclusive [cytotoxic, single point]
CCOC(=O)[C@]12Cc3ccccc3[C@H]1N(Cc1ccccc1)C(=O)c1cc(F)c(F)cc12	inconclusive [cytotoxic, single point]
O=C(/C=C/C=C/c1ccccc1)CC1(O)C(=O)Nc2ccccc21 (stereo not drawn)	inconclusive [cytotoxic, single point]
C[C@]12CC[C@H](O)C[C@H]1CC[C@@H]1[C@@H]2CC[C@]2(C)[C@@H](C3=CC(=O)OC3)CC[C@]12O	active: 0.259 µM
COc1ccc(C2=NCC(=O)N(CC(=O)NCc3ccco3)c3sc4c(c32)CCCC4)cc1	inconclusive [cytotoxic, single point]

From PubChem BioAssay AID686971 (National Center for Advancing Translational Sciences (NCATS), 2013)
